From PubChem BioAssay AID686978 (National Center for Advancing Translational Sciences (NCATS), 2013)
Among all 420,000 compounds or so, about 64,000 (15%) were called active. The inconclusive results got no clear call from the source; some entries with a clear call stand among them for comparison. Calls come from the whole dose curve; as a rule, active = well fitted inhibition curve with a large enough effect; inconclusive = small, poorly fitted or top-dose-only effect; inactive = flat fitted curve, though single readings scatter. Potencies of inconclusive entries are left out as doubtful fits.

assay: qHTS for Inhibitors of human tyrosyl-DNA phosphodiesterase 1 (TDP1): qHTS in cells in absence of CPT; conditions: DT40 Tdp1-/- hTDP1 cells, no CPT, ATP luminescence, 48 h; activity change, negative = growth inhibition: at 46.2 µM (top of the series) unless noted; note: nearly all actives have a fitted effect of over 55% in size
How it was run: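 Growth of hTDP1-complemented DT40 Tdp1-knockout cells is measured by ATP luminescence after at least 48 hr compound exposure at 37 °C, with DMSO substituting for the 20 nM CPT used in the parallel screen.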
% is set by controls: 0 for no effect and ±100 for the full control effect; potency is the fitted concentration of half-maximal effect; tags give direction and shape of the fitted curve.

Structure (SMILES) | activity change, negative = growth inhibition | Potency
CC(Nc1ccc2c(c1)OCCO2)C(=O)N1CCc2ccccc21 (stereo not given) | inactive: -20.3% | 
O=C(Nc1cccc2cccnc12)c1ccccc1Cl |  | inconclusive [inhibitor, single point]
Cc1ccccc1C(=O)N1CCc2cc(-c3nc(NC(=O)Cc4ccc5c(c4)OCO5)sc3C)ccc21 |  | active: 6.51 µM
CC1CCCC(NC(=O)CCn2c(=S)oc3ccccc32)C1C (stereo not given) |  | inconclusive [inhibitor, partial curve, poor fit]
COc1ccccc1OCC(=O)Nc1nc(C)c(C)s1 |  | inconclusive [inhibitor, single point]
O=C1CCc2cc(NS(=O)(=O)c3ccc(Cl)cc3)cc3c2N1CC3 | inactive: -18.7% | 
COc1ccc(C2C(C(=O)NCC3CCCO3)c3cc(OC)c(OC)cc3C(=O)N2C)cc1OC (stereo not given) | inactive: -3.94% | 
CCOC(=O)C1CCN(S(=O)(=O)c2ccc(-c3nc4ccccc4s3)s2)CC1 |  | inconclusive [inhibitor, single point]
CC1(C(=O)Nc2cccc3cccnc23)CCN1C(=O)Cc1ccc(Cl)cc1Cl (stereo not given) |  | active: 20.6 µM
CCOC(=O)C1CCCN(Cc2nc(N)nc(Nc3ccc(OC)cc3)n2)C1 (stereo not given) |  | inconclusive [inhibitor, single point]
OC(Cc1cccc(C=NN2CCOCC2)n1)(C(F)(F)F)C(F)(F)F |  | inconclusive [inhibitor, single point]
CC(C)(C)NC(=O)COC(=O)c1cc(Br)ccc1Cl |  | inconclusive [inhibitor, single point]
O=C1/C(=C/c2cccs2)SC(=S)N1c1cccc(O)c1 |  | inconclusive [inhibitor, single point]
NC(=S)Nc1ccc(F)cc1F | inactive: 0.424% | 
CCOC(=O)COc1ccc(Br)cc1/C=C\c1[nH]c(=O)[nH]c(=O)c1[N+](=O)[O-] |  | active: 23.1 µM
OC(c1cccnc1)c1ccc2c(c1)CN(Cc1cn(-c3ccccc3)nc1-c1ccccc1)CCO2 (stereo not given) |  | inconclusive [inhibitor, single point]
COCCn1c(SCC(=O)Nc2ccc(F)cc2F)nc2c(c1=O)SCC2 |  | inconclusive [inhibitor, partial curve]
CS(=O)(=O)c1ccc(-c2csc(C(O)c3cccc(Cl)c3)n2)cc1 (stereo not given) |  | inconclusive [inhibitor, partial curve]
O=S(=O)(Nc1ncccn1)c1ccc(Cl)cc1 | inactive: 15% | 
Cc1nnc(NC(=O)C2CCCO2)s1 (stereo not given) | inactive: -3.29% | 
COc1ccccc1C(=O)NCCC(=O)NCC1CCCO1 (stereo not given) | inactive: 9.71% | 
CC(=O)N1CC(C)Sc2ccc(S(=O)(=O)N3CCCCC3)cc21 (stereo not given) | inactive: -16.9% | 
O=C(O)c1ccc(/C=N/Nc2ccc(Cl)nn2)cc1 | inactive: -8.02% | 
COc1ccc(CCNC(=O)c2c(C)oc3ncn(CC(C)C)c(=O)c23)cc1OC |  | inconclusive [inhibitor, single point]
O=C(Nc1c(Br)cc2c(c1Br)Cc1cc([N+](=O)[O-])ccc1-2)C(Cl)Cl |  | inconclusive [inhibitor, single point]

Structure (SMILES) | activity change, negative = growth inhibition | Potency
CC(C)c1ccc(NC(=O)N2CCc3ccccc3C2)cc1 |  | inconclusive [inhibitor, single point]
COc1ccc(C2C(C#N)=C(N)Oc3cc(C)n(Cc4ccco4)c(=O)c32)cc1 (stereo not given) | inactive: -10.4% | 
Cc1cc(C)n(CCc2nc(-c3ccc(C)o3)cs2)n1 |  | active: 16.4 µM
COc1ccc(N2C[C@H](Cc3ccccc3)[C@@H](CC(=O)Nc3ccccc3)C2=O)cc1 |  | active: 20.6 µM
COc1c(OC)c2occc2c2oc(=O)ccc12 | inactive: -11.9% | 
Fc1cc(Br)ccc1NC(=S)Nc1ccccc1 |  | inconclusive [inhibitor, partial curve]
CCC(=O)N1C(Cc2ccccc2)COC1(C)C (stereo not given) | inactive: -1.8% | 
Nc1ccccc1C(=O)N1O[C@@H]2C=C[C@H]1C2 |  | inconclusive [inhibitor, single point]
COc1ccccc1CCNC(=O)c1ccc(NC(=O)CC2SC(N3CCCCC3)=NC2=O)cc1 (stereo not given) |  | inconclusive [inhibitor, single point]
CCC[C@@H](CN1CCC[C@H]1CN1C(N)=NC[C@H]1CC(C)C)N1C[C@@H]([C@H](C)CC)N(CCCC2CCCC2)C1=N |  | active: 16.4 µM
O=C(Cn1c(=O)n(-c2ccc(Cl)cc2)c(=O)c2oc3ccccc3c21)Nc1ccccc1 |  | inconclusive [inhibitor, partial curve]
CO/N=C(/c1nonc1N)N1CCN(c2ccc([N+](=O)[O-])cc2)CC1 |  | inconclusive [inhibitor, single point]
O=C(c1cccc(F)c1)N1CCC2(CCN(Cc3cc(C(F)(F)F)cc(C(F)(F)F)c3)CC2)CC1 |  | active: 18.4 µM
C=CC(=O)NC(NC(=O)C=C)c1ccc(Br)cc1 |  | inconclusive [inhibitor, partial curve, poor fit]
CCN(CC)S(=O)(=O)c1nnc(NC(=O)c2ccc(C(C)C)cc2)s1 | inactive: -27.1% | 
O=C(Oc1coc(CSc2ncccn2)cc1=O)c1cccs1 | inactive: -8.1% | 
Cc1cc(C(=O)OCC(=O)Nc2ccc(F)cc2[N+](=O)[O-])c2ccccc2n1 | inactive: -12.1% | 
Cc1cc2c(cc1C)-n1nnnc1C(N1CCN(C(=O)OCc3ccccc3)CC1)C(=O)N2 (stereo not given) |  | active: 5.8 µM
C[C@H]1COC(=O)[C@@H](CC(=O)OC(C)(C)C)C/C=C\C[C@H](CC(=O)NCCO)C(=O)N1 | inactive: -10.3% | 
NC(=O)C1(Nc2ccc(Br)cc2)CCCC1 | inactive: -17.4% | 
O=C(Cc1ccc(Cl)cc1)NCC(c1cccs1)S(=O)(=O)c1ccc(F)cc1 (stereo not given) |  | inconclusive [inhibitor, single point]
Cc1ccc(S(=O)(=O)N2CCC(=O)N(C(COCc3cccc(Cl)c3)Cc3ccccc3)CC2)cc1 (stereo not given) |  | active: 18.4 µM
COc1cccc(C(=O)Nc2ccccc2-c2nnc(-c3cc(OC)ccc3Br)o2)c1 |  | inconclusive [inhibitor, single point]
O=c1c(C=NCc2cccnc2)c(C(F)(F)F)[nH]n1-c1nc2ccccc2s1 | inactive: -23.3% | 
Cc1ccccc1CNC(=O)Cn1ccc2cc(S(=O)(=O)N3CCCCCC3)ccc21 |  | inconclusive [inhibitor, single point]

Structure (SMILES) | activity change, negative = growth inhibition | Potency
O=C(NCc1ccccc1Cl)C1CCN(S(=O)(=O)c2ccc(F)cc2)CC1 | inactive: -17.8% | 
O=C(c1cccc(F)c1)N1CCC2(CC1)CCN(c1ccc(-c3ccccc3)cc1)CC2 | inactive: 1.5% | 
CN(Cc1ccccc1)C(=O)C1CCN(S(=O)(=O)c2cccc3nsnc23)CC1 |  | inconclusive [inhibitor, single point]
O=C(Cn1cnc2ccccc2c1=O)NC1CCCc2ccccc21 (stereo not given) |  | inconclusive [inhibitor, single point]
CCCCCCCOc1ccc(C2(C)NC(=O)NC2=O)cc1 (stereo not given) |  | inconclusive [inhibitor, single point]
O=C(c1ccc2c(c1)OCO2)N(CC1CCCO1)C1(C(=O)NC2CCCCC2)CCCCC1 (stereo not given) |  | inconclusive [inhibitor, partial curve]
CCCSS/C(CCO)=C(\C)N(C=O)Cc1cnc(C)nc1N |  | active: 2.99 µM
CC1CC(C)CN(C(=O)c2cccc(S(=O)(=O)N(C)c3ccccc3)c2)C1 (stereo not given) |  | active: 5.8 µM
O=C(C1CCOC1)N1CCOc2ccc(CN3CCC(Oc4cccnc4)CC3)cc2C1 (stereo not given) | inactive: -10.5% | 
CC(=O)c1nn(-c2ccccc2)c(=Nc2ccccc2)cc1C | inactive: -19.2% | 
Cc1cccc(N2CCN(CCCNC(=O)c3nnc(Cc4c(F)cccc4Cl)o3)CC2C)c1 (stereo not given) |  | inconclusive [inhibitor, single point]
COc1cc(CC(=O)O)ccc1O |  | inconclusive [inhibitor, single point]
Cc1ccc(S(=O)(=O)C(C#N)c2nc3ccccc3nc2N2CCN(C)CC2)cc1 (stereo not given) | inactive: 7.78% | 
CC(C)CN(C(=O)COC(=O)c1ccccc1NCc1ccco1)c1c(N)n(Cc2ccccc2)c(=O)[nH]c1=O | inactive: -24.4% | 
C[C@@H]1CN([C@@H](C)CO)C(=O)c2cc(C#Cc3cccc(F)c3)cnc2O[C@H]1CN(C)C(=O)C1CCCCC1 | inconclusive: -36.3% [inhibitor] | 
Cc1cc(C)c2oc(C(=O)N(Cc3cccs3)C3CCS(=O)(=O)C3)cc(=O)c2c1 (stereo not given) |  | inconclusive [inhibitor, single point]
O=c1cc(-c2ccsc2)oc2cc(-c3ccc4c(c3)OCO4)ccc12 |  | inconclusive [inhibitor, single point]
CC1C(c2ccc3c(c2)OCO3)c2cc3c(cc2OC1N1CCOCC1)OCO3 (stereo not given) |  | inconclusive [inhibitor, single point]
Cn1c(=O)c2c(nc(CN3CCN(c4ccccc4)CC3)n2CCCc2ccccc2)n(C)c1=O |  | active: 14.6 µM
Cc1nn2c(=O)cc(COC(=O)c3cccc(NC(=O)c4ccc(C(C)(C)C)cc4)c3)nc2s1 | inactive: 0.019% | 
COc1ccc(-n2cc(-c3ccc(OC)c(OC)c3)[nH]c2=S)cc1 |  | inconclusive [inhibitor, single point]
COc1ccc(-n2cccc2C=O)cc1 | inactive: -25.4% | 
Cc1nn(Cc2ccccc2Cl)c(Cl)c1/C=C/C(=O)OCC(=O)NC(N)=O |  | active: 2.31 µM
COCCCN1C(=O)c2ccc(C(=O)N3CCN(c4ccc(OC)cc4)CC3)cc2C1=O | inactive: 18.8% | 
COc1ccc(-n2nc([N+](=O)[O-])c(=NCCCN3CCCC3=O)n2O)cc1 |  | inconclusive [inhibitor, partial curve, poor fit]
